These compounds were tested on MLKL phosphorylation, HT29-L23 human colorectal adenocarcinoma cells (assay: cells). Details: read-out: pMLKL HCS Cell Assay (IC50, uM).
CC(C)(F)C(=O)N1C[C@H](F)[C@H](NC(=O)c2cc(-c3cc(C(F)(F)F)c4c(N)ncnn34)c(F)cc2Cl)C1 [Example 401, 5-[4-amino-5-(trifluoromethyl)pyrrolo[2,1-f][1,2,4]triazin-7-yl]-2-chloro-4-fluoro-N-[(3R,4S)-4-fluoro-1-(2-fluoro-2-methyl-propanoyl)pyrrolidin-3-yl] benzamide] showed an IC50 of 0.027 µM.
COc1ncc(-c2cc(C(F)(F)F)c3c(N)ncnn23)cc1C(=O)Nc1cn(Cc2ccc(Cl)cc2)cn1 [Example 1807, 5-(4-amino-5-(trifluoromethyl)pyrrolo[2,1-f][1,2,4]triazin-7-yl)-N-(1-(4-chlorobenzyl)-1H-imidazol-4-yl)-2-methoxynicotinamide] was tested, and the IC50 was 0.016 µM.
For COc1ncc(-c2cc(CN3CCC(F)(F)CC3)c3c(N)ncnn23)cc1C(=O)N[C@@H]1CN(C(=O)C2(F)CC2)C[C@@H]1F [Example 1245, 5-{4-amino-5-[(4,4-difluoropiperidin-1-yl)methyl]pyrrolo[2,1-f][1,2,4]triazin-7-yl}-N-[(3R,4S)-4-fluoro-1-(1-fluorocyclopropanecarbonyl)pyrrolidin-3-yl]-2-methoxypyridine-3-carboxamide], the IC50 was 0.00075 µM.
Work on Nc1ncnn2c(-c3cnc(F)c(C(=O)NCCC(O)c4ccc(F)cc4)c3)cc(C(F)(F)F)c12 (centres unmarked) [Example 272, 5-[4-amino-5-(trifluoromethyl)pyrrolo[2,1-f][1,2,4]triazin-7-yl]-2-fluoro-N-[3-(4-fluorophenyl)-3-hydroxypropyl] pyridine-3-carboxamide] yielded an IC50 of 0.0083 µM.
COc1c(F)cc(-c2cc(C(F)(F)F)c3c(N)ncnn23)cc1C(=O)N[C@@H]1CN(C(=O)CC(C)(O)C(F)(F)F)C[C@@H]1F (stereo partly drawn) [Example 696, 5-[4-amino-5-(trifluoromethyl)pyrrolo[2,1-f][1,2,4]triazin-7-yl]-3-fluoro-N-[(3R,4S)-4-fluoro-1-(4,4,4-trifluoro-3-hydroxy-3-methylbutanoyl)pyrrolidin-3-yl]-2-methoxybenzamide] was tested, and the IC50 was 0.023 µM.
Work on Nc1ncnn2c(-c3ccc(F)c(C(=O)N[C@@H]4CN(C(=O)c5ccc(F)cc5)C[C@@H]4F)c3)cc(C(F)(F)F)c12 [Example 256, 5-[4-amino-5-(trifluoromethyl)pyrrolo[2,1-f][1,2,4]triazin-7-yl]-2-fluoro-N-[(3R,4S)-4-fluoro-1-(4-fluorobenzoyl)pyrrolidin-3-yl]benzamide] yielded an IC50 of 0.064 µM.
COc1ncc(-c2cc(C(F)(F)F)c3c(N)ncnn23)cc1C(=O)NC1CN(Cc2cc(F)ccc2F)CC1F (racemic) [Example 234, 5-[4-amino-5-(trifluoromethyl)pyrrolo[2,1-f][1,2,4]triazin-7-yl]-N-{1-[(2,5-difluorophenyl)methyl]-4-fluoropyrrolidin-3-yl}-2-methoxypyridine-3-carboxamide] gave an IC50 of 0.015 µM.
Cc1nc(C)c(-c2cc(C(F)(F)F)c3c(N)ncnn23)cc1C(=O)N1CCC[C@H](Cc2ccc(F)cc2)C1 [Example 530, 7-{5-[(3R)-3-[(4-fluorophenyl)methyl]piperidine-1-carbonyl]-2,6-dimethylpyridin-3-yl}-5-(trifluoromethyl)pyrrolo[2,1-f][1,2,4]triazin-4-amine] gave an IC50 of 0.043 µM.
COc1ncc(-c2cc(C(F)(F)F)c3c(N)ncnn23)cc1C(=O)N1CCC[C@@H](Cc2cccc(F)c2)C1 [Example 133, 7-{5-[(3S)-3-[(3-fluorophenyl)methyl]piperidine-1-carbonyl]-6-methoxypyridin-3-yl}-5-(trifluoromethyl)pyrrolo[2,1-f][1,2,4]triazin-4-amine] showed an IC50 of 0.016 µM.
With Nc1ncnn2c(-c3cccc(C(=O)N[C@@H]4CN(C(=O)[C@@H](O)C(F)(F)F)C[C@@H]4F)c3)cc(CN3CC(F)(F)C3)c12 [Example 1164, 3-{4-amino-5-[(3,3-difluoroazetidin-1-yl)methyl]pyrrolo[2,1-f][1,2,4]triazin-7-yl}-N-[(3R,4S)-4-fluoro-1-[(2R)-3,3,3-trifluoro-2-hydroxypropanoyl]pyrrolidin-3-yl]benzamide] the IC50 was 0.006 µM.
COc1ncc(-c2cc(CN3CC(C)OC(C)C3)c3c(N)ncnn23)cc1C(=O)N[C@@H]1CN(C(=O)C2CC(F)(F)C2)C[C@@H]1F (stereo partly drawn) [Example 490, 5-{4-amino-5-[(2,6-dimethylmorpholin-4-yl)methyl]pyrrolo[2,1-f][1,2,4]triazin-7-yl}-N-[(3R,4S)-1-(3,3-difluorocyclobutanecarbonyl)-4-fluoropyrrolidin-3-yl]-2-methoxypyridine-3-carboxamide] gave an IC50 of 0.03 µM.
COc1ncc(-c2cc(C(F)(F)F)c3c(N)ncnn23)cc1C(=O)NCCC(O)c1ccc(F)c(F)c1 (centres unmarked) [Example 134, 5-[4-amino-5-(trifluoromethyl)pyrrolo[2,1-f][1,2,4]triazin-7-yl]-N-[3-(3,4-difluorophenyl)-3-hydroxypropyl]-2-methoxypyridine-3-carboxamide] showed an IC50 of 0.015 µM.
With COc1ncc(-c2cc(C(F)(F)F)c3c(N)ncnn23)cc1C(=O)NCCC(O)CC(C)C (centres unmarked) [Example 1767, 5-(4-amino-5-(trifluoromethyl)pyrrolo[2,1-f][1,2,4]triazin-7-yl)-N-(3-hydroxy-5-methylhexyl)-2-methoxynicotinamide] the IC50 was 0.047 µM.
COc1ncc(-c2cc(C(F)(F)F)c3c(N)ncnn23)cc1NC(=O)c1cn(Cc2ccccc2)cn1 [Example 1772, N-(5-(4-amino-5-(trifluoromethyl)pyrrolo[2,1-f][1,2,4]triazin-7-yl)-2-methoxypyridin-3-yl)-1-benzyl-1H-imidazole-4-carboxamide] was tested, and the IC50 was 0.026 µM.
Compound COc1ncc(-c2cc(C(F)(F)F)c3c(N)ncnn23)cc1C(=O)NC1CCCCC(c2ccccc2)C1 (centres unmarked) [Example 1691, 5-(4-amino-5-(trifluoromethyl)pyrrolo[2,1-f][1,2,4]triazin-7-yl)-2-methoxy-N-(3-phenylcycloheptyl)nicotinamide] has an IC50 of 0.013 µM.
In the case of COc1cc(F)c(-c2cc(C(F)(F)F)c3c(N)ncnn23)cc1C(=O)N[C@@H]1CN(C(=O)CC(O)(C(F)(F)F)C(F)(F)F)C[C@@H]1F [Example 565, 5-(4-amino-5-(trifluoromethyl)pyrrolo[2,1-f][1,2,4]triazin-7-yl)-4-fluoro-N-((3R,4S)-4-fluoro-1-(4,4,4-trifluoro-3-hydroxy-3-(trifluoromethyl)butanoyl)pyrrolidin-3-yl)-2-methoxybenzamide], the IC50 is reported as 0.0029 µM.
For COc1ncc(-c2cc(C(F)(F)F)c3c(N)ncnn23)cc1C(=O)Nc1ncn(Cc2ccccc2)n1 [Example 1344, 5-[4-amino-5-(trifluoromethyl)pyrrolo[2,1-f][1,2,4]triazin-7-yl]-N-(1-benzyl-1H-1,2,4-triazol-3-yl)-2-methoxypyridine-3-carboxamide], the IC50 was 0.0083 µM.
COc1ncc(-c2cc(CN3CCC(F)(F)CC3)c3c(N)ncnn23)cc1C(=O)N[C@@H]1CN(C(=O)CC(C)C)C[C@@H]1F [Example 1247, 5-{4-amino-5-[(4,4-difluoropiperidin-1-yl)methyl]pyrrolo[2,1-f][1,2,4]triazin-7-yl}-N-[(3R,4S)-4-fluoro-1-(3-methylbutanoyl)pyrrolidin-3-yl]-2-methoxypyridine-3-carboxamide] showed an IC50 of 0.00058 µM.
COc1ccc(-c2cc(C(F)(F)F)c3c(N)ncnn23)cc1C(=O)N[C@@H]1CN(C(=O)C(C)(C)F)C[C@@H]1F [Example 1119, 5-[4-amino-5-(trifluoromethyl)pyrrolo[2,1-f][1,2,4]triazin-7-yl]-N-[(3R,4S)-4-fluoro-1-(2-fluoro-2-methylpropanoyl)pyrrolidin-3-yl]-2-methoxybenzamide] gave an IC50 of 0.035 µM.
In the case of Nc1ncnn2c(-c3ccc(F)c(C(=O)N[C@@H]4CN(C(=O)C5CCOCC5)C[C@@H]4F)c3)cc(C(F)(F)F)c12 [Example 258, 5-[4-amino-5-(trifluoromethyl)pyrrolo[2,1-f][1,2,4]triazin-7-yl]-2-fluoro-N-[(3R,4S)-4-fluoro-1-(oxane-4-carbonyl)pyrrolidin-3-yl]benzamide], the IC50 is reported as 0.194 µM.
CCc1ccc(-c2cc(C(F)(F)F)c3c(N)ncnn23)cc1C(=O)N[C@@H]1CN(C(=O)[C@@](C)(O)C(F)(F)F)C[C@@H]1F [Example 976, 5-[4-amino-5-(trifluoromethyl)pyrrolo[2,1-f][1,2,4]triazin-7-yl]-2-ethyl-N-[(3R,4S)-4-fluoro-1-[(2R)-3,3,3-trifluoro-2-hydroxy-2-methylpropanoyl]pyrrolidin-3-yl]benzamide] gave an IC50 of 0.0031 µM.
COc1ncc(-c2cc(CNCCO)c3c(N)ncnn23)cc1C(=O)N[C@@H]1CN(CC(O)C(F)(F)F)C[C@@H]1F (stereo partly drawn) [Example 478, 5-(4-amino-5-{[(2-hydroxyethyl)amino]methyl}pyrrolo[2,1-f][1,2,4]triazin-7-yl)-N-[(3R,4S)-4-fluoro-1-(3,3,3-trifluoro-2-hydroxypropyl)pyrrolidin-3-yl]-2-methoxypyridine-3-carboxamide] was tested, and the IC50 was 0.078 µM.
Work on Cc1ncc(-c2cc(C(F)(F)F)c3c(N)ncnn23)cc1C(=O)Nc1cn(Cc2cc(OC(F)(F)F)ccc2F)cn1 [Example 1778, 5-(4-amino-5-(trifluoromethyl)pyrrolo[2,1-f][1,2,4]triazin-7-yl)-N-(1-(2-fluoro-5-(trifluoromethoxy)benzyl)-1H-imidazol-4-yl)-2-methylnicotinamide] yielded an IC50 of 0.012 µM.
COc1ncc(-c2cc(C(F)(F)F)c3c(N)ncnn23)cc1C(=O)N[C@@H]1CN(C(=O)CC2CC2)C[C@@H]1F [Example 1206, 5-[4-amino-5-(trifluoromethyl)pyrrolo[2,1-f][1,2,4]triazin-7-yl]-N-[(3R,4S)-1-(2-cyclopropylacetyl)-4-fluoropyrrolidin-3-yl]-2-methoxypyridine-3-carboxamide] gave an IC50 of 0.04 µM.
Compound Cc1cc(F)c(-c2cc(C(F)(F)F)c3c(N)ncnn23)cc1C(=O)N[C@@H]1CN(C(=O)C2CCC(F)(F)CC2)C[C@@H]1F [Example 800, 5-[4-amino-5-(trifluoromethyl)pyrrolo[2,1-f][1,2,4]triazin-7-yl]-N-[(3R,4S)-1-(4,4-difluorocyclohexanecarbonyl)-4-fluoropyrrolidin-3-yl]-4-fluoro-2-methylbenzamide] has an IC50 of 0.003 µM.
Compound CNc1ncc(-c2cc(C(F)(F)F)c3c(N)ncnn23)cc1C(=O)NCC[C@H](O)c1ccc(Cl)cc1 [Example 30, 5-[4-amino-5-(trifluoromethyl)pyrrolo[2,1-f][1,2,4]triazin-7-yl]-N-[(3S)-3-(4-chlorophenyl)-3-hydroxypropyl]-2-(methylamino)pyridine-3-carboxamide] has an IC50 of 0.013 µM.

Source: patent US11618753B2 (priority 2018, dated 2023)
